Results published in the supplement of paper PMC10338343.
± gives the standard deviation. The entries are a selection whose mix differs from that of the whole data set.

System: MIWI (PIWIL1) piRISC loaded with L1MC piRNA (30 nt)
Assay: pre-steady-state target cleavage rate (min^-1); MIWI and MILI are mouse PIWI proteins and EfPiwi is from a freshwater sponge; tags in brackets are library labels; higher = faster piRNA-guided slicing of the target
Conditions: guide: L1MC piRNA 5'p-UAACUAAAUACUAUGCAAGCUGUAGGUCCU; auxiliary factor: 500 nM mouse GTSF1
How it was run: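 Cleave-'n-Seq measured uncleaved targets by sequencing after a transcribed, DNA-blocked target RNA library […] was mixed with 1 nM active affinity-purified piRISC holding one synthetic guide, with or without 500 nM GTSF1 partner protein, at 33 °C in HEPES–potassium acetate buffer for 0–8 or 0–960 min. Counts were normalised to depth and to weakly complementary targets, three trials were pooled, and k3 was capped at 0.0001 min^-1. A burst-and-steady-state fit gave the pre-steady-state cleavage rate.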
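Note: 1 nM active piRISC with 0.1 nM target library at 33 °C single turnover.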

| Sequence | pre-steady-state target cleavage rate |
| --- | --- |
| UGGUGGUACAGCUUGCAUAGUAUUUAGUUA | 1.3 ± 0.046 |
| UGGACCUAGAGCUUGCAUAGUAUUUAGUAA | 0.698 ± 0.054 |
| UCCUGGUACAGCUUGCAUAGAUUUUAGUUA | 0.0613 ± 0.012 |
| UCCUGGAUGUGCAUUGCAUAGUAUUUAGUUA | 0.223 ± 0.023 |
| UCGACCUACAGCUUGCAUAGUAUUUCGUUA | 0.562 ± 0.052 |
| UCCUGCUACAGCAUGCAUAGUAUUUAGAUA | 0.332 ± 0.037 |
| UCGACCUACAGCUUGCAAGUAUUUAGUUA | 0.427 ± 0.038 |
| UCCUGGAUGAGCUUGCAUAGUAUUUAGUCA | 0.51 ± 0.044 |
| UCCACCUACAGCUUGCAUAGUUUUUAGAUA | 0.16 ± 0.029 |
| UCCUCCUACAGCUUGCAUAGUAUUUAAUUA | 0.299 ± 0.028 |
| UCCUCCUUGUGCUUGCAUAGUAUUUAGAAA | 0.0893 ± 0.015 |
| UCCUGCUACAGCUUGCAAAGUAUUUAGAAA | 0.319 ± 0.043 |
| UGGACCUACACCUUGCAUAGUAUUUUCAAA | 0.327 ± 0.05 |
| UCCUGGAUCAGCUUGCAUAGAAUUUUGUUA | 0.235 ± 0.039 |
| UCGACCUACACCUAGCAUAGUAUUUAGUUA | 0.995 ± 0.058 |
| UGGACCUACACCUUGCAUAGUAUAUAGUUA | 0.523 ± 0.041 |
| UCCACCUACAGCUUGCAUAGAAUUUAGUUA | 0.469 ± 0.049 |
| UCCUGGAUCAGCUUCGCAUAGUAUUUAGUUA | 0.783 ± 0.049 |
| UCCUGGUACAGCUUGCAUUGUAAUUAGUUA | 0.158 ± 0.021 |
| UCCUGGAUCAGCUUGCAUAGUUUUUAGAUA | 0.0839 ± 0.021 |

| Sequence | pre-steady-state target cleavage rate |
| --- | --- |
| UCCUGGAACAGCUUGCUUAGAAUUUAGUUA | 0.133 ± 0.015 |
| UCCUGCUACAGCUUGCAAAGUAUUAAGUUA | 0.532 ± 0.042 |
| UCCUGGAUGUCCUUGCAUGGUAUUUAGUUA | 0.0401 ± 0.0081 |
| UGGACCUAGAGCUUGGAUAGUAUUUAGUUA | 1.25 ± 0.076 |
| UCCUGGUACAGCUUGCAUAGUUUUAAGUUA | 0.117 ± 0.032 |
| UCGUCCUACAGCUUGCAUAGUAUUUACAAA | 0.362 ± 0.038 |
| UCCUGGAUGAGCAUGCAUAGAAUUUAGUUA | 0.0501 ± 0.012 |
| AGGACCUACAGCUUGCAUAGUUUUAAGUUA | 0.254 ± 0.024 |
| UCCUGCUACAGCUUGCAUAGUAUUUACUAA | 0.18 ± 0.022 |
| UCCUCCUACAGCUUGCAUAGAAUUUAGUAA | 0.429 ± 0.057 |
| UGGACGAACAGCUUGCAUAGUAUUUACAAA | 0.264 ± 0.033 |
| UCCACCUACAGCUUGCAUAGUACUUAGUUA | 0.641 ± 0.05 |
| UCGUCCUACAGCUUGCAUAGUAUUUAGAAA | 0.469 ± 0.042 |
| UGGACCUACAGCAUGCAUAGUAUUUACAAA | 0.276 ± 0.043 |
| AGGUCCUACAGCUAGCAUAGUAUUUAGUUA | 0.743 ± 0.025 |
| AGGACGUACAGCUUGCAUAGUUUUUAGUUA | 0.344 ± 0.02 |
| UCCUGGAACUGCUUGCAUAGUAUUUUGUUA | 0.334 ± 0.027 |
| UCCUGCUACACCUUGCAUAGUAUUAAGUUA | 0.383 ± 0.066 |
| UCCUGCUACAGCUUGCAUAGAAUUUAGAAA | 0.306 ± 0.053 |
| UCCUUCUACAGCUUGCAUAGUAUUUAGUUA | 1.02 ± 0.033 |
